Source: article PMC4336329 (PLoS ONE, 2015)
Out of some 310,000 compounds screened, about 2,200 (0.71%) showed an effect of 50% or more. Effects have a minus sign here. The list shows a part of the results. Where a SMILES comes first, the peptide text is derived from it. [ ]: non-standard residue; d: D form. The star is where a group is joined. ξ: configuration not given here. ξY = NC(Cc1ccc(O)cc1)C(=O)O; Cbz = O=C(OCc1ccccc1)*; OtBu = CC(C)(C)O*; tBu = CC(C)(C)*

The molecules below were run against human ether-à-go-go-related gene (hERG) potassium channel (human, UniProt Q12809) (assay: primary screen, population patch clamp on CHO cells stably expressing hERG).
human ether-à-go-go-related gene (hERG) potassium channel, sequence (Q12809 whole entry, looked up): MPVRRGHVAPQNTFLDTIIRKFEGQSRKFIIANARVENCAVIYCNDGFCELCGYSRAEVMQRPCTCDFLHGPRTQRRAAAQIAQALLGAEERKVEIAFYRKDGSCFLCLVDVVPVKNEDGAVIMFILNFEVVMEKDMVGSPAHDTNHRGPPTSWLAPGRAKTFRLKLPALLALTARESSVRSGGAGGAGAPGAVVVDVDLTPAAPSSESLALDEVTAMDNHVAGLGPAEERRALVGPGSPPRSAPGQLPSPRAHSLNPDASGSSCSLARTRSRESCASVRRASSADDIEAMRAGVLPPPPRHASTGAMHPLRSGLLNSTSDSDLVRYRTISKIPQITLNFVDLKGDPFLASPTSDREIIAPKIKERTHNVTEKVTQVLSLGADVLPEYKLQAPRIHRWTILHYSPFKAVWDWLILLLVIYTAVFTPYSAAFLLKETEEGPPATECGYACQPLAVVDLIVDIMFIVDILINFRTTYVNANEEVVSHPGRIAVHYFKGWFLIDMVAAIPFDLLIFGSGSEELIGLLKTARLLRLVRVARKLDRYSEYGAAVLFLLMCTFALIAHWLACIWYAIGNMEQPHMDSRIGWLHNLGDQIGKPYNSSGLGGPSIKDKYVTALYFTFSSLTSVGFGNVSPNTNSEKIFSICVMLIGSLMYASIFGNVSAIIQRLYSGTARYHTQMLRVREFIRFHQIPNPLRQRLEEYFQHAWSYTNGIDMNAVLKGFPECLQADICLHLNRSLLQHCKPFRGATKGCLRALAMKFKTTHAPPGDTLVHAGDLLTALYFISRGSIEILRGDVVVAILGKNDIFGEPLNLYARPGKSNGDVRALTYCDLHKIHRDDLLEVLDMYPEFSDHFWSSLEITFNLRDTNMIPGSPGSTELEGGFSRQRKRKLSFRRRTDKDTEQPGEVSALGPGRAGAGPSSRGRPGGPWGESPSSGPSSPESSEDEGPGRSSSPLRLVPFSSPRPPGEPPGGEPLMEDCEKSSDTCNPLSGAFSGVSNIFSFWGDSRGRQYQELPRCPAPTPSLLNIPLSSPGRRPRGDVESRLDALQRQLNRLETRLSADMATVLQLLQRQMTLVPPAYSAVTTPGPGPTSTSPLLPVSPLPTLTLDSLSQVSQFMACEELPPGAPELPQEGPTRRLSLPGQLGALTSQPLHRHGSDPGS

| SMILES | hERG current change (%, negative = inhibition) at 1uM [%] |
| --- | --- |
| CN(CC(=O)O/N=C(\N)c1ccccn1)S(=O)(=O)c1cc(Cl)ccc1Cl | 5.03 |
| CC1(C)[C@H]2CC[C@]1(C)[C@@H](OC(=O)C[N+]1(C)CCOCC1)C2.[I-] | 15.5 |
| COc1ccc(C(=O)OCCc2cc3ccccc3c(=O)o2)cc1 | 11.4 |
| CC(C)(C)c1ccc(/C=C/C(=O)Nc2ncccn2)cc1 | 17.1 |
| Cc1cc(OCC(=O)OCC(=O)NCC2CCCO2)ccc1Cl (stereo not drawn) | 11.4 |
| O=C(CNS(=O)(=O)c1ccc(Br)s1)Nc1ccc2c(c1)OCCO2 | 4.22 |
| COc1ccc(OC)c(C2CC(=O)N3CN(c4ccccc4F)CSC3=C2C#N)c1 (stereo not drawn) | 12.9 |
| COc1ccc(CCC(=O)Nc2ccc(Cl)c(S(=O)(=O)N3CCCC3)c2)cc1 | -3.3 |
| COc1ccc(CC(=O)N2CCN=C2SC)cc1OC | 4.01 |
| Cc1cc(NC(=O)CCCN2C(=O)c3cccc4cccc(c34)C2=O)no1 | 4.02 |
| CCN(CC)S(=O)(=O)c1ccc(NC(=O)C2CCCO2)cc1 (stereo not drawn) | 16.3 |
| COc1cccc(OC)c1-c1nn2c(-c3ccccc3Cl)nnc2s1 | 5.33 |
| COc1ccc(Cl)cc1NC(=O)C(C)N(C)Cc1ccc(C(F)(F)F)cc1 (stereo not drawn) | 12.2 |
| COCCNC(=O)c1ccc(N2CC3CC(C2)c2cccc(=O)n2C3)c(NC(=O)c2ccc(Br)o2)c1 (stereo not drawn) | 10.5 |
| Cc1cccc(N2C(=O)N3[C@H](c4ccc(F)cc4)[C@@H]4C(=O)N(C5CCCCC5)C(=O)[C@@H]4[C@]3(Cc3ccccc3)C2=O)c1 | 11.6 |
| CCOC(=O)Cc1csc(NC(=O)CSc2ncnc3c2cnn3-c2ccc(OC)cc2)n1 | 4.2 |
| Cc1cc(C)n(CCSCC(=O)O)n1 | 20.6 |
| COc1ccccc1Nc1nnc(SCc2cc(=O)n3cc(C)ccc3n2)s1 | 15.1 |
| Cc1occc1-c1nnc(SCc2nc3ccccc3c(=O)n2CC#N)n1C | -19.7 |
| O=c1oc(-c2ccco2)nc2ccccc12 | 10.1 |
| O=C(c1nc2ccc(Cl)cn2c1CN1CCCC1)N1CCc2ccccc2C1 | 7.74 |
| CN(C#N)c1nc(Cl)nc(Nc2cccc(Cl)c2)n1 | -7.06 |
| CCc1cccc(CC)c1C(OC(C)=O)c1cccnc1 (stereo not drawn) | 13.7 |
| O=C(CN(CC1CCCO1)C(=O)CNS(=O)(=O)c1ccccc1)NCc1ccco1 (stereo not drawn) | 17.5 |
| COc1ccc(NC(=O)CN2CCN(C3c4ccccc4-c4ccccc43)CC2)c(OC)c1 | -4.97 |
| COc1cc(S(=O)(=O)Nc2cccc(C(=O)O)c2)c(OC)cc1Cl | 8.43 |
| COc1ccc(OC)c(NC(=S)NCc2ccccc2OC)c1 | 10.7 |

| SMILES | hERG current change (%, negative = inhibition) at 1uM [%] |
| --- | --- |
| Cn1c(Cc2nc(-c3cnccn3)no2)nnc1SCC(=O)Nc1ccccc1 | 3.09 |
| CSc1ccccc1NC(=O)CN(C)C(=O)c1ccc(NC(=O)c2cccs2)cc1 | 14.6 |
| Nc1ccc(Cl)c[n+]1Cc1cccc2cccnc12.[Br-] | -3.72 |
| CCOC(=O)C1CCN(C(=O)c2cc3cc(F)ccc3[nH]2)CC1 | -6.63 |
| CC(C)(C)OC(=O)C(Cc1ccc(OC(C)(C)C)cc1)NC(=O)CNC(=O)CNC(=O)OCc1ccccc1 (stereo not drawn) (Cbz-Gly-Gly-[ξY](tBu)-OtBu) | 6.26 |
| O=C(NC(=S)Nc1cc(Cl)ccc1N1CCOCC1)c1ccccc1[N+](=O)[O-] | 11.6 |
| COc1ccc(C(=O)N/N=C\c2ccoc2)cc1 | 13 |
| CCOC(=O)c1cn2nc(Oc3cccc(F)c3)ccc2n1 | 10.4 |
| O=C(Oc1cccnc1)c1cc(S(=O)(=O)N2CCOCC2)ccc1Cl | 7.31 |
| Cc1ccc(CN(C)C(=O)COC(=O)CSc2ccc(C(N)=O)cc2[N+](=O)[O-])cc1 | 16 |
| COc1ccc(CC(=O)OCC(=O)Nc2ncc(Cl)cc2Cl)cc1OC | 11.8 |
| CC1CCc2c(c3ccccc3[nH]c2=O)O1 (stereo not drawn) | 6.57 |
| COc1ccc(NC(=O)c2nc3nc(C)cc(C(F)F)n3n2)cc1OC | 9.25 |
| CCOc1cc(C)c(S(=O)(=O)N2CCCC2)cc1C | 14.8 |
| Br.Cc1ccccc1Cn1c(=N)n(CC(=O)c2ccco2)c2ccccc21 | -28.9 |
| COc1ccc(C(C(=O)NC2CCCCC2)N(C(=O)CCl)c2ccc(C)cc2)cc1 (stereo not drawn) | 5.58 |
| Oc1c(Br)cccc1/C=N/Nc1c(F)c(F)c(F)c(F)c1F | 3.82 |
| CCCCC(=O)Nc1cc(-c2nc3ncccc3o2)ccc1C | 8.43 |
| COc1cccc(-c2nnc3sc(-c4ccco4)nn23)c1 | 20.1 |
| Cn1c(=O)c2c(nc(SC3C(=O)CC(C)(C)CC3=O)n2C)n(C)c1=O | 10.7 |
| Cc1c(NC(=O)CN2CCN(c3ccc([N+](=O)[O-])cc3)CC2)c(=O)n(-c2ccccc2)n1C | -12.7 |
| O=C(O)c1cccc(NC(=O)c2ccc(N3C(=O)c4ccc(C(=O)Nc5cccc(C(=O)O)c5)cc4C3=O)cc2)c1 | 4.74 |
| COc1ccc(NC(=O)c2cccc(N3C(=O)C4C5C=CC(C5)C4C3=O)c2)c(OC)c1 (stereo not drawn) | 4.68 |
| Cc1occc1-c1nnc(SCC(=O)N2CCCCC2)o1 | 0.0698 |
| COc1cc(NS(=O)(=O)c2ccc(NC(=O)c3ccc([N+](=O)[O-])cc3)cc2)ncn1 | 10.2 |
| COc1cccc(-c2ccc(=O)n(CC(=O)Nc3cc4c(cc3NC(C)=O)OCCO4)n2)c1 | 4.84 |
| O=C1CC(C(=O)Nc2ccc(Cl)cc2)n2ncnc2N1 (stereo not drawn) | -4.3 |
